Source: PMC12381110 (Nature Communications, 2025)

Assays:
native gel or EMSA = molecular target: the molecule itself; assay: native gel or EMSA
[1] = molecular target: MalF, transmembrane subunit of the maltose transporter MalFGK2 ( (bacterial; expressed in E. …, UniProt P02916); assay: native gel or EMSA
cryo-EM structure = molecular target: the molecule itself; assay: cryo-EM structure

B1: SecA (natural protein)
chain: not shown
stoichiometry N (native gel or EMSA): 2

B2: MalK, ATPase subunit of the maltose transporter MalFGK2 (natural protein)
chain: not shown
binding result [1]: binds
binding result (cryo-EM structure): binds
